Reference: the supplement of paper PMC12217912
The other results are listed elsewhere or left out. The full chains were built here from the parent and the listed change. Inactive controls read about 0.05.

B1: TEV protease; numbered along this chain (parent)
chain: MGESLFKGPRDYNPISSSICHLTNESDGHTTSLYGIGFGPFIITNKHLFRRNNGTLVVQSLHGVFKVKDTTTLQQHLVDGRDMIIIRMPKDFPPFPQKLKFREPQREERICLVTTNFQTKSMSSMVSDTSCTFPSGDGIFWKHWIQTKDGQCGSPLVSTRDGFIVGIHSASNFTNTNNYFTSVPKNFMELLTNQEAQQWVSGWRLNADSVLWGGHKVFMVKPEEPFQPVKEATQL

Variants of: B1
Assay: raw area under fraction-flipped curve 0-4 h after induction (AUC4h, not background-subtracted), DNA-recorder readout of cleavage of the substrate (dimensionless); higher = more cleavage of the substrate by the protease variant
Details: temperature: 34 °C; time window: 0-4 h after rhamnose induction
Description: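 In vivo DNA recorder in E. coli TOP10(DE3) ΔrhaA at 34 °C. Each TEVp single-site mutant (parent TEVp 0) is paired with a single-site variant of the 7-mer TEVs (canonical ENLYFQ|S). The substrate sits between flexible linkers in a Bxb1-sfGFP-TEVs-SsrA fusion, so cleavage stabilises Bxb1 and speeds flipping of a recombination array, read by NGS. The value is the raw area under the fraction-flipped curve over 0-4 h after rhamnose induction (AUC4h), with ≥20 reads per time point. It is not background-subtracted; inactive controls average about 0.047.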
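Further: Bxb1 expression induced with 0.2% (w/v) L-rhamnose at OD600 near 0.5, cultures sampled hourly, flipped fraction per protease–substrate barcode pair counted by paired-end Illumina sequencing.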

Variant	area with substrate ENAYFQS	area with substrate ENCYFQS	area with substrate ENDYFQS	area with substrate ENEYFQS	area with substrate ENGYFQS	area with substrate ENHYFQS	area with substrate ENIYFQS	area with substrate ENKYFQS	area with substrate ENMYFQS	area with substrate ENNYFQS	area with substrate ENQYFQS	area with substrate ENRYFQS	area with substrate ENSYFQS	area with substrate ENTYFQS	area with substrate ENVYFQS	area with substrate ENYYFQS	area with substrate ENFYFQS	area with substrate ENPYFQS	area with substrate ENWYFQS
T71F	0.0587	0.0678	0.0647	0.0627	0.0681	0.0569	0.0606	0.0636	0.0625	0.0669	0.0549	0.0693	0.0724	0.057	0.0689	0.0569	–	–	–
R106I	0.0584	–	0.0667	0.06	0.0773	–	–	0.0712	–	0.0657	0.0639	0.064	0.0797	0.0619	0.0847	–	0.0606	–	–
V64N	0.0596	0.0648	0.0481	0.0582	0.0626	–	–	0.0669	–	–	0.0449	0.0616	0.0665	0.0572	0.0538	0.0476	0.0572	0.0647	0.0734
K90I	0.0671	0.0716	0.0536	0.0572	0.0501	0.0567	0.116	0.072	0.0765	0.0629	0.0539	0.0456	0.0514	–	0.0829	–	0.0549	0.0636	0.0666
K90F	0.0559	0.0477	0.0542	0.0614	–	–	–	0.0544	0.077	0.0559	0.0581	–	0.0507	0.0614	0.0872	–	0.0541	–	–
G80H	0.0502	0.0772	0.0549	–	0.0512	0.0584	0.104	0.0595	–	0.0645	0.0639	–	0.0656	0.0623	0.0802	0.0503	0.0623	–	–
L77T	0.0602	0.053	–	0.0491	–	0.0715	–	0.0316	–	–	0.0489	0.0629	0.0997	0.0634	0.075	–	0.0571	–	0.0619
P104Y	0.0565	0.0443	0.0522	0.0558	0.0575	–	0.0506	–	0.0562	0.0459	0.0555	0.0626	0.0598	–	0.0551	0.0621	0.0464	0.0092	0.0426
P89W	0.0473	0.0317	0.0358	0.0551	0.0423	0.0454	–	–	–	0.0319	0.0375	0.0406	0.0488	0.0686	0.0527	–	–	–	–
P89F	0.066	0.0544	–	–	–	–	0.0583	–	0.0566	–	–	–	0.0569	0.069	0.0524	–	0.0488	0.063	–
P89E	0.0526	0.0555	0.0475	0.0613	0.054	–	0.0946	–	0.0942	0.0574	–	0.0621	0.0276	–	0.0691	–	0.0674	0.0746	0.0501
V67R	0.055	–	0.0531	0.0523	–	0.0521	–	–	0.0493	0.0401	0.0547	–	0.0554	0.0722	0.0537	0.0513	0.0571	0.0498	–
R109P	0.0676	0.0577	0.06	0.0469	0.0594	0.0559	0.104	0.0675	–	0.0803	0.0521	0.066	0.0622	0.0175	0.0783	0.0626	0.0595	0.0681	–
R109C	0.075	0.0652	0.0518	0.0517	–	–	0.0922	–	–	0.0537	0.0607	0.0575	0.0583	–	0.0723	–	–	–	0.0671
G63N	0.0678	–	0.0494	0.0652	0.0475	–	0.0719	–	0.0773	0.0382	0.0445	0.0501	0.0517	0.0549	–	–	0.0532	–	–
R81I	0.0749	0.06	0.0646	0.0473	0.0603	0.0466	0.103	0.0662	0.0642	–	0.0692	0.0562	0.0535	0.0592	0.084	0.0653	–	0.0678	0.0327
R81G	0.068	0.0653	0.052	0.0656	0.0765	–	0.0895	0.0589	0.0635	–	0.0605	–	0.0428	–	–	0.0611	0.0485	–	0.0604
L99C	0.0616	0.0559	0.0518	0.0551	0.0657	–	0.0939	0.0338	–	0.0785	0.0554	0.0534	0.071	–	0.0795	–	–	–	–
E103K	0.0542	–	0.0682	–	–	0.0667	0.142	–	0.07	0.0589	0.0614	–	0.0674	–	0.0742	–	0.0673	–	–
F92T	0.0686	0.0796	–	0.0783	–	–	–	–	0.0764	0.0774	–	–	0.0502	–	0.0802	–	0.0649	0.0396	–
T72P	0.0577	0.0671	0.0701	0.0571	0.0671	0.0731	–	0.066	0.0709	0.0599	0.0579	–	0.0765	–	0.0512	0.0684	0.0582	0.0553	–
Q105T	0.0606	0.0692	0.0717	–	0.0722	0.0607	–	–	–	–	–	0.0608	0.0578	–	0.0495	–	0.028	–	–
Q105N	0.062	0.0705	0.0526	0.0584	0.0612	–	–	0.0714	0.0839	0.057	0.0642	0.0559	0.0684	0.0574	0.075	0.0722	0.083	–	0.0213
Q105K	0.0151	0.0733	0.0486	0.0712	0.0576	0.0573	0.121	0.0734	–	0.0522	0.0635	0.0608	0.0636	0.0567	0.0844	0.0535	0.0547	0.0657	0.0643
D69Q	0.0542	0.0666	0.0513	0.0708	0.0665	0.0614	0.0964	0.0677	–	0.0547	0.0602	0.0438	0.0763	0.068	–	0.0596	0.0598	0.0612	0.0534
D69H	0.0254	0.0643	0.0608	0.0598	0.0569	0.0663	–	–	0.0686	0.0519	0.0524	0.0625	0.0643	0.0589	0.0706	–	0.063	0.0686	0.0684
